Laboratory results: PMC12136788
The list shows a part of the results.

B1: ENSG00000136451:be:win_501|CDS|ENSG00000136451|bound_else_gene|NA|bound_elsewhere_windowed (ssRNA)
RNA: GGGAGUUCUACAGUCCGACGAUCUAAGCCUGUCAAGAAGAACCAUGCUUGUGAGAUGUGUGGGAAGGCCUUCCGAGAUGUGUACCAUCUCAAUCGACACAAGCUCUCCCAUUCAGAUGAGAAACCCUUUGAGUGUCCUAUUUGCAACAGAGGAUUGAGCAUCA
B2: ENSG00000117139:stop:overlap|stop_codon|ENSG00000117139|stop_codon|NA|stop_codon (ssRNA)
RNA: GGGAGUUCUACAGUCCGACGAUCAUGAAUACUGUUUGUUUUUUGUUUUUCCUUCCAGAUUAGACUUUGGGGGAUUUCUUAUAUAGAAUAAAGGGCUUGAUUAUAUGUAGCCUCUAUCCUGGAGAAAGGUUAUGUAAUUUGGACCAACAGAGGAUUGAGCAUCA
B3: chr1:152032676:152032810:-|CDS|ENSG00000163191|unk|FALSE|unique (ssRNA)
RNA: GGGAGUUCUACAGUCCGACGAUCGGACCCUGGUGUCCUUGACCGCAUGAUGAAGAAACUGGACACCAACAGUGAUGGUCAGCUAGAUUUCUCAGAAUUUCUUAAUCUGAUUGGUGGCCUAGCUAUGGCUUGCCAUGACUCCUUCAACAGAGGAUUGAGCAUCA
B4: chr17:63354981:63355093:+|CDS|ENSG00000170921|unk|total|mutant (ssRNA)
RNA: GGGAGUUCUACAGUCCGACGAUCCAGUCAAGGGUCCUAUCUAUAUCUGAAACUUACAUUUGACCUCACCGAGAAAGGCUAUCCCGUGUUAAAGAGCUCCCGCUACAAAGCCGUUCCUGUUUCGCUCUCAGAGGUUUAUUUACUCAACAGAGGAUUGAGCAUCA
B5: chr8:70573615:70573716:-|3pUTR|ENSG00000067167|msi1|FALSE|unique (ssRNA)
RNA: GGGAGUUCUACAGUCCGACGAUCCAGUGUUCACAUCUUGUUCCCCAUUUCUCACUUGUGUCACCAGCUGUUUGUGCCAUUUUUAGUGUAAAAGUUGCAGACCUAUUAGAUCUGCAGUUUAAGUUGCCAUGCUGCUAGGAAAUUCAACAGAGGAUUGAGCAUCA
B6: chr22:38864602:38864703:-|3pUTR|ENSG00000183741|msi1|total|mutant (ssRNA)
RNA: GGGAGUUCUACAGUCCGACGAUCGCUGUGCUGCCAUGGGCCCCUCCCUCAGAAGCACGUUGGCAGGAGGCCGAUCAGAACCCCCGCGCCUUUGGUCCUAAGAAUGGGAGGCUGCCUUCCUUCCCAAUCUCCCUGCCAGGGCCCCAACAGAGGAUUGAGCAUCA
B7: chr12:110350735:110350839:+|3pUTR|ENSG00000174437|unk|FALSE|unique (ssRNA)
RNA: GGGAGUUCUACAGUCCGACGAUCUACAGUUUGCUUAUUUAUAAAUUCAUUAAAAACACUACAGGUGUUGAAUGGUUAAAAUGUAGGCCUCCAGUUCAUUUUCAGUUAUUUUCUGAGUGUGCAGACAGCUAUUUCGCACUGUAUCAACAGAGGAUUGAGCAUCA
B8: chr1:93346344:93346492:+|5pUTR|ENSG00000117505|unk|total|mutant (ssRNA)
RNA: GGGAGUUCUACAGUCCGACGAUCGCCGCUCAAAUUUCCGGACCACCGCGCUUUCCCCUCCUCAGCCUGGGCUGUGCUCUCUCCCGAAUCCUCGGGCCCCCACUUUCUUCCCAAACUCAUCCUAAAUCUCUCACACACGCGAGUCAACAGAGGAUUGAGCAUCA
B9: chr4:103158754:103158855:-|CDS|ENSG00000138778|msi1|total|mutant (ssRNA)
RNA: GGGAGUUCUACAGUCCGACGAUCGGAGAAAACACGUGAGGUUCAAGAAAGACUAAAUGAGAUGGAACAGCUGAAGGAACAAUCCGAAAACCGAGAUUCUACGCUGCAAACUGCCGAAAGGGAGAAAACACUGAUUACUGAGAACAACAGAGGAUUGAGCAUCA
B10: chr19:58083837:58084684:-|three_prime_utr|ENSG00000121413|control|control|control (ssRNA)
RNA: GGGAGUUCUACAGUCCGACGAUCGCUCGCAUCCGAGGGGAGCCGCCGGAUGUGGAAGAAGACUCGGCUUUCCUGCAGCCAUUUAGUGCCGCCCCAUGCUAGGUUAUUUGACAUUGUGCAGUGUAGAGUUGCCUUAAAGUGCGUCAACAGAGGAUUGAGCAUCA
B11: chr2:120221238:120221343:-|3pUTR|ENSG00000226479|unk|total|mutant (ssRNA)
RNA: GGGAGUUCUACAGUCCGACGAUCAUAUGUUGAAUUCCCGUUCUCUGCAUUACCAUUAUUACGUUAAAGUAUUUUUUAAAGCUCCGGUGUGAAGAUAUGUGUCUAUUGCAGAUGUCCUUGAAAACUGCAUAAAACAGUAUGUGCCAACAGAGGAUUGAGCAUCA
B12: chr5:119149357:119149458:+|CDS|ENSG00000172869|msi1|FALSE|unique (ssRNA)
RNA: GGGAGUUCUACAGUCCGACGAUCCUGGGAGAGUACCAAAGUUGUGCCCCUUUCUAAAUUUGUACUAUUACGAAGUGUGGACCUAGUUUCUUCUGUAGAUGGCUCCCCACCUUUUCCUGUUUCUUUAUCGUGGGUCCGGGAUGGCAACAGAGGAUUGAGCAUCA
B13: ENSG00000115216:stop:overlap|stop_codon|ENSG00000115216|stop_codon|NA|stop_codon (ssRNA)
RNA: GGGAGUUCUACAGUCCGACGAUCACAAGUUCAAUUUUGCCAGGAACAGUACCCUCAACUCAGCCGCUGUCACCGUCUCCUCUUAGAGCUCACUCGGGCCAGGCCCUGAUCUGCGCUGUGGCUGUCCCUGGACGUGCUGCAGCCCAACAGAGGAUUGAGCAUCA
B14: ENSG00000132341:stop:overlap|stop_codon|ENSG00000132341|stop_codon|NA|stop_codon (ssRNA)
RNA: GGGAGUUCUACAGUCCGACGAUCUCUCGCCCCACCAGAAGUUGUCAUGGACCCAGCUUUGGCAGCACAGUAUGAGCACGACUUAGAGGUUGCUCAGACAACUGCUCUCCCGGAUGAGGAUGAUGACCUGUGAGAAUGAAGCUGCAACAGAGGAUUGAGCAUCA
B15: chr3:194644572:194644746:-|CDS|ENSG00000041802|control|control|control (ssRNA)
RNA: GGGAGUUCUACAGUCCGACGAUCGCAUCAACACCAGCGACUCCUAGAGAACAAAAUGAACAGUGAUGAAAUAAAAAUGCAGCUAGGCAGAAAUAAAAAAGCAAAGCAGAUUGAAAAUAUCGUUGACAAAACUUUUUUCCAUCACAACAGAGGAUUGAGCAUCA
B16: chr12:104012598:104012803:-|three_prime_utr|ENSG00000120820|control|control|control (ssRNA)
RNA: GGGAGUUCUACAGUCCGACGAUCCUGAGAUGCUGGAAGCUAAGACGUUAACAAACGGACUCUGGAGGACACAAUUCAGUCCAUAGCAGUAUCUACACCUCAAUAAACUGUUCUAAAAGAGAGAGAGAGAGAAGGAAGUCACAUCAACAGAGGAUUGAGCAUCA
B17: chr6:144852070:144852171:+|3pUTR|ENSG00000152818|unk|FALSE|unique (ssRNA)
RNA: GGGAGUUCUACAGUCCGACGAUCAAGUCCUUAAUAGUUCUUGAAACUCCUAGUUGUUUUCUUGUUGAAAGCAGACACACAUUUAGUGCACGGCUUAUUUUACCUUUCGGGUGAAAGAUCAGAUGUUUUUAUACCCUUCACUUGCAACAGAGGAUUGAGCAUCA
B18: chr8:58583617:58583718:-|3pUTR|ENSG00000035681|unk|FALSE|unique (ssRNA)
RNA: GGGAGUUCUACAGUCCGACGAUCGUUUUGUCUUCCUAAUCUAUCACAAUUGCCACCCAUCGGGUUUUGGGUGUGUGUUUUCAUAGCGUGGUUACUUUCUAUAAUGCUGUACCCAGAUUCUAAGAACCUGGAGAAGGAUUAGCACAACAGAGGAUUGAGCAUCA
B19: chr7:83961326:83961382:-|CDS_3pUTR|ENSG00000075213|msi1_unk|total|mutant (ssRNA)
RNA: GGGAGUUCUACAGUCCGACGAUCAAACAGGAGGACCCACGAAUUUGAGAGGGCACCCAGGAGUGUCUGAGCUGCAUUACCUCCCGAAACCUCAAACAAGCCGAAACUUGCCCCGACAAUAACUGGAAAAACAAAUGCAAUAUACAACAGAGGAUUGAGCAUCA
B20: chr21:43982464:43982545:+|3pUTR|ENSG00000160216|msi1_unk|FALSE|overlapping (ssRNA)
RNA: GGGAGUUCUACAGUCCGACGAUCCCCUGACGGUGGUAUCCAGUUAACUCAAAACCAACACACAGAGUGCAGGAAAAGACAAUUAGAAACUAUUUUUCUUAUUAACUGGUGACUAAUAUUAACAAAACUUGAGCCAAGAGUAAACAACAGAGGAUUGAGCAUCA
B21: chr15:32969305:32969406:-|CDS|ENSG00000248905|unk|total|mutant (ssRNA)
RNA: GGGAGUUCUACAGUCCGACGAUCCGAGCAUGCAAUGAUAACAGCGAGACCCGAAGAAACCAUUGAAAAUCUGAAACACGAGCCCGAACACAGAUGGCGAGGGGGUUGUGAAGAGAGGAAAGAUGUGUGCAUUUCCACCGAUGACAACAGAGGAUUGAGCAUCA
B22: chr15:41900134:41900198:-|3pUTR|ENSG00000103966|msi1_unk|total|mutant (ssRNA)
RNA: GGGAGUUCUACAGUCCGACGAUCAGGGCACCUGGAGGCAGCAAAGAUUAUCUUAUUUAUUUUAUUUUGUUUUCUGCUAUAUUCCGAGUGGCAAAAAAACCGAGCAGAGGGUUUCUGCUGUCUCCAGACUGUCUACCAAAGAGACAACAGAGGAUUGAGCAUCA

What follows are binders tested against MSI1 full-length (mouse, UniProt Q61474 1-362) (assay: nsRBNS (natural sequence RNA bind-n-seq); RBNS binding buffer (assumed for nsRBNS): 25 mM Tris pH 7.5, 150 mM KCl, 3 mM MgCl2, 0.01% Triton X-100, 500 ug/ml BSA, 20 U/ml SUPERase-In, 4 C; UNK is unkempt and MSI1 is Musashi-1; names of the RNAs are library labels; protein concentration not given here; high values mean tight binding).
Sequence of UniProt Q61474 (Q61474 whole entry): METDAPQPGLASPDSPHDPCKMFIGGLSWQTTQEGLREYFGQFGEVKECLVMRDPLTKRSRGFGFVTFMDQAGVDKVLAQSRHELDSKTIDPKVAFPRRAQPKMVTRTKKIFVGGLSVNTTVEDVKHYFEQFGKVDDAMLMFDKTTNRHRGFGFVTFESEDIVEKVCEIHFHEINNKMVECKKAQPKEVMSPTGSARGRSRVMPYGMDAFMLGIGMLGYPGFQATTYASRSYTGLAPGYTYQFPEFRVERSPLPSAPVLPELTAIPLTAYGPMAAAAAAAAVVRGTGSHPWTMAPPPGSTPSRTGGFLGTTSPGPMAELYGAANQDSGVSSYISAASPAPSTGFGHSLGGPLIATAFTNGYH
With B1 the binding signal was 0.372 enrichment R.
Work on B2 yielded a binding signal of 0.597 enrichment R.
Binder B3 has a binding signal of 0.264 enrichment R.
B4 showed a binding signal of 0.604 enrichment R.
B5 showed a binding signal of 0.937 enrichment R.
With B6 the binding signal was 0.697 enrichment R.
Work on B7 yielded a binding signal of 0.745 enrichment R.
B8 was tested, and the binding signal was 1.04 enrichment R.
In the case of B9, the binding signal is reported as 0.495 enrichment R.
B10 was tested, and the binding signal was 0.686 enrichment R.
Binder B11 has a binding signal of 0.867 enrichment R.
B12 was tested, and the binding signal was 0.952 enrichment R.
B13 was tested, and the binding signal was 0.763 enrichment R.
B14 was tested, and the binding signal was 0.416 enrichment R.
Work on B15 yielded a binding signal of 0.528 enrichment R.
B16 showed a binding signal of 0.905 enrichment R.
Binder B17 has a binding signal of 1.29 enrichment R.
For B18, the binding signal was 0.431 enrichment R.
With B19 the binding signal was 0.373 enrichment R.
B20 gave a binding signal of 0.745 enrichment R.
Binder B21 has a binding signal of 0.531 enrichment R.
B22 was tested, and the binding signal was 0.793 enrichment R.
